# About 120 (0.25%) of roughly 48,000 compounds were called active. Not shown: some 4% with an inconclusive outcome. Calls come from the whole dose curve; as a rule, active = well fitted activation curve with a large enough effect; inconclusive = small, poorly fitted or top-dose-only effect, or another doubt; inactive = no such curve, though single readings can be large or run the other way. The list shows a part of the results.
# Assay: Primary qHTS for Identification of Small Molecule Activators of Huntingtin-Antisense Promoter Activity; note: nearly all actives have a fitted effect of over 55% in size
# Details: HEK293 HTT-AS promoter firefly luciferase reporter (activity 0% = vehicle and -100% = no light), 24 h; series mostly up to 57.5 µM; activity change, positive = activation: at the top concentration
# How it was run: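 HEK293 Fluc reporter, 2,500 cells/well, 24 h pre-culture; cpds up to 57.5 uM final, 24 h 37 degrees C; Dual-Glo, 10 min RT; normalized vehicle = 0%, zero RLU = -100%.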
row,Structure (SMILES),"activity change, positive = activation"
1,O=C(NCCC1=CCCCC1)c1ccc2c(c1)N(Cc1ccccc1F)C(=O)c1ccccc1S2=O (configuration not stated),inactive: -9.15%
2,CCc1cccc(-n2c(=O)c3cccnc3n2CC(=O)NCc2ccccc2)c1,inactive: -18%
3,CCn1nnc2cc(C(=O)Nc3ccc(Cl)cc3C)ccc21,inactive: -0.614%
4,COc1cccc(-c2cn3c(n2)sc2cc(C(=O)NCCCc4ccccc4)ccc23)c1,inactive: 18.2%
5,CSc1ccc(CNC(=O)C2CCCN(S(=O)(=O)N(C)c3ccc(F)cc3)C2)cc1 (configuration not stated),inactive: -65.1%
6,O=C(CC1(O)C(=O)N(CCc2ccccc2)c2ccc(Br)cc21)c1ccc(F)cc1 (configuration not stated),inactive: -27.4%
7,CCOc1ccc(CCNC(=O)CCCn2c(=O)c3cccn3c3cccnc32)cc1OCC,inactive: -1.52%
8,CCc1ccc2c(c1)c(=O)c(S(=O)(=O)c1ccc(Cl)cc1)cn2CC,inactive: -15.4%
9,COc1cccc(CNCCSc2nnnn2C)c1OCc1ccccc1,inactive: -14.9%
10,COC(=O)CC1Oc2ccccc2-n2cc(-c3ccc(C)cc3)nc21 (configuration not stated),inactive: -12.7%
11,Nc1c(C(=O)NCc2ccc(Cl)cc2Cl)nnn1Cc1ccc(Br)cc1,inactive: -42.1%
12,COc1ccc(OCC(=O)Nc2cc(-c3ccccc3F)nn2-c2ccccc2)cc1,inactive: 13.1%
13,CCc1ccc(CNC(=O)c2cc3cc(S(=O)(=O)N4CCCCC4)ccc3n2C)cc1,inactive: -29.4%
14,Cc1ccc(S(=O)(=O)NCC2CCC(C(=O)NCc3ccc(F)cc3)CC2)cc1 (configuration not stated),inactive: -5.34%
15,CCCn1ccc2c(OCC(=O)Nc3cc(C)ccc3C)cccc2c1=O,inactive: -23.4%
16,Cc1cc(SCc2sc(-c3ccc(C(F)(F)F)cc3)nc2C)ccc1OCC(=O)O,inactive: 21.4%
17,COCCCn1c(=N)c(C(=O)NCC2CCCO2)cc2c(=O)n3cc(C)ccc3nc21 (configuration not stated),inactive: -1.01%
18,CC(=O)OCC(=O)[C@H]1CC[C@H]2[C@@H]3CCC4=CC(=O)CC[C@]4(C)[C@H]3CC[C@]12C,inactive: -7.65%
19,Cc1ccc2c(=O)cc(C(=O)Nc3ccc(S(=O)(=O)N4CCC(C)CC4)cc3)oc2c1C,inactive: -8.63%
20,O=C(Cc1ccccc1)Nc1sc2c(c1C(=O)Nc1ccccc1)CCCCC2,inactive: -3.77%
21,COc1cc(C2CC(=O)Nc3c2c(C)nn3-c2nc(C)cc(C)n2)cc(OC)c1O (configuration not stated),inactive: -3.19%
22,COc1cccc(-c2nn3c(=O)cc(CN4CCN(S(=O)(=O)c5ccc(C)cc5)CC4)nc3s2)c1,inactive: 0.62%
23,Cc1ccc(CSc2nnc(-n3c(=O)c(C#N)cc4c(=O)n5cccc(C)c5nc43)s2)cc1,inactive: -10.6%

row,Structure (SMILES),"activity change, positive = activation"
1,COc1ccc(-c2nc3ccccc3n3c(-c4cccc(C)c4)c4c(=O)n(C)c(=O)n(C)c4c23)cc1,inactive: -7.16%
2,CSc1nc(=O)c2c(n1C)NC(=O)CC2c1ccccc1OC(C)C (configuration not stated),inactive: -4.37%
3,O=C(/C=C/c1ccccc1)NCCO,inactive: -2.85%
4,CCCCn1cc2c(c1-c1ccccc1Br)c(=O)n(C)c(=O)n2C,inactive: -20.5%
5,Cc1nc(N2CCOCC2)c2c(C(=O)NCCc3ccccc3)c(C)oc2n1,inactive: 19.5%
6,Cc1ccc(C(=O)n2nc(-c3ccco3)nc2NCc2cccs2)cc1,inactive: 14.5%
7,COc1ccc(C)cc1NC(=O)C1CCN(S(=O)(=O)c2c(C)noc2/C=C/c2ccco2)CC1,inactive: -8.44%
8,O=C(Nc1ccc(F)cc1F)C(Cc1ccccc1)N1Cc2ccccc2C1=O (configuration not stated),inactive: -22.9%
9,COc1cccc(-n2c(-c3ccc(Cl)cc3)cc3c2CC(C)(C)CC3=O)c1,inactive: -30.6%
10,C#C[C@]1(O)CC[C@H]2[C@@H]3CCC4=CC(=O)CC[C@@H]4[C@H]3CC[C@@]21CC,inactive: -8.52%
11,Cc1ccc2nc(NC(=O)CSc3nc4c(c(=O)n3-c3ccccc3)SCC4)sc2c1,inactive: -33.7%
12,O=C(CCC(=O)N1CC2CCCN2c2ccccc21)NCc1cccc(Cl)c1 (configuration not stated),inactive: -20.5%
13,COc1cc2c(=O)n(Cc3ccccc3Cl)c(=O)n(CC(=O)Nc3ccccc3)c2cc1OC,inactive: -23.9%
14,Cc1ccc(C(=O)Nc2nc3ccc(S(=O)(=O)N4CCCC4)cc3s2)cc1,inactive: -3.25%
15,Cc1ccc(-c2nnc(SCC(=O)NC3CCCC3)nc2-c2ccc(C)cc2)cc1,inactive: -25.3%
16,COc1ccc(CN2C(=O)c3oc4ccc(F)cc4c(=O)c3C2c2ccc(O)cc2)cc1 (configuration not stated),inactive: -11.6%
17,CCOc1ccc(NC(=O)CCC(=O)N2CC(C)Oc3ccc(C)cc32)cc1 (configuration not stated),inactive: 0.112%
18,Cc1ccc(Cn2cc(C(=O)c3ccc(F)cc3)c(=O)c3cc4c(cc32)OCCO4)cc1,inactive: -22.3%
19,CCc1ccccc1NC(=O)CSCc1cnn(-c2ccccc2)c1-n1cccc1,inactive: -28.4%
20,CCOc1ccccc1CNCCNC(=O)c1nonc1N,inactive: -2.22%
21,Cc1ccccc1Nc1sc(C(=O)c2ccccc2)c(N)c1C(=O)NCc1ccc(Cl)cc1,inactive: -36.7%
22,Cc1ccc2c(c1)c1c(c(=O)n(-c3ccccc3C)c(=O)n1CC(=O)N1CCCC1)n2C,inactive: -14.2%
23,Cc1ccc2ncc3c(-c4ccc(F)cc4)nn(-c4cccc(F)c4)c3c2c1,inactive: -13.1%

row,Structure (SMILES),"activity change, positive = activation"
1,COc1cc(OC)c(NC(=O)CC(c2cccs2)N2Cc3ccccc3C2=O)cc1Cl (configuration not stated),inactive: -23.8%
2,CCOC(=O)C1CCN(S(=O)(=O)c2cc3c4c(c2)CC(=O)N4CCC3)CC1,inactive: -10.9%
3,CC1(C)[C@@H](OC(=O)CCC(=O)O)CC[C@]2(C)[C@H]3C(=O)C=C4[C@@H]5C[C@@](C)(C(=O)O)CC[C@]5(C)CC[C@@]4(C)[C@]3(C)CC[C@@H]12,inactive: -3.67%
4,CN(C)S(=O)(=O)n1cc(/C=C(\NC(=O)c2ccccc2Cl)C(=O)NCCCn2ccnc2)c2ccccc21,inactive: -6.54%
5,O=C(NCCc1ccccc1)C1(c2cccs2)CCOCC1,inactive: -12.6%
6,CCN(CC)CCNC(=O)c1nn(-c2ccc(OC)c(Cl)c2)c(=O)c2c1c1ccccc1n2C,inactive: -1.42%
7,O=C(CSc1nc2c(c(=O)[nH]1)CN(Cc1ccc(F)cc1)CC2)Nc1ccccc1Cl,inactive: -24.1%
8,COc1cccc(C(=O)N2c3nc(-c4ccco4)nn3C3(CCCCC3)[C@@H]3CCCC[C@@H]32)c1,inactive: -42.3%
9,CCc1nn(C(C)C(=O)N2CCN(c3cccc(C(F)(F)F)c3)CC2)c(=O)c2cc3occc3n12 (configuration not stated),inactive: -44.5%
10,CCCNC(=O)c1c(C)nn(-c2cccc(C)c2)c1-n1cccc1,inactive: -19.9%
11,Cc1ccc(Cl)cc1-n1c(=O)c2sc3ccccc3c2n(Cc2ccccc2)c1=O,inactive: -13.4%
12,CCOc1cc(-c2nnc(SCC(=O)NC3CCCC3)nc2-c2ccc(OC)c(OCC)c2)ccc1OC,inactive: 4.77%
13,Nc1ncnc(Nc2ccccc2)n1,inactive: 16%
14,CC(C)CCN1C(=O)c2ccccc2CC1(C)C(=O)NC1CCC(C)CC1 (configuration not stated),inactive: -7.12%
15,O=C(CSc1nccn1C1CCCC1)Nc1ccc(C(F)(F)F)cc1,inactive: -19.1%
16,CC(C)c1ccc(-c2nc(C(N)=O)c3c(n2)n(-c2ccc4c(c2)OCO4)c(=O)n3C)cc1,inactive: -4.07%
17,O=C(Nc1cccc(F)c1)[C@H](CSCc1ccccc1)N1Cc2ccccc2C1=O,inactive: -37.6%
18,CCOc1ccc(NC(=O)Cn2cc(S(=O)(=O)NC)c(S(=O)(=O)NC)c2)cc1,inactive: -9.76%
19,COc1ccc(NC(=O)C2CCN(S(=O)(=O)c3ccc4[nH]c5c(c4c3)CCCCC5)CC2)cc1,inactive: -32.4%
20,Cn1c(=O)c(Oc2ccc(F)cc2F)cc2cnc(NC3CCOCC3)nc21,inactive: -16.6%
21,CCOc1ccc(NC(=O)Cn2c(=O)n(-c3ccccc3)c(=O)c3ccc(C(=O)NCc4ccc5c(c4)OCO5)cc32)cc1,inactive: -49.1%
22,Cc1ccccc1S(=O)(=O)Cc1ccc(C(=O)NC2CCC(C)CC2)o1 (configuration not stated),inactive: -3.67%
23,Cc1nc2nc[nH]n2c(=O)c1CCC(=O)Nc1ccc(F)cc1,inactive: -5.36%

row,Structure (SMILES),"activity change, positive = activation"
1,Cc1ccc(CNC(=O)C2CCN(S(=O)(=O)c3ccc4[nH]c(=O)ccc4c3)CC2)cc1,inactive: -27.4%
2,CCC(C)NC(=O)CSc1nc2cc3c(cc2c(=O)n1CCCCCC(=O)NCc1ccc2c(c1)OCO2)OCO3 (configuration not stated),inactive: -3.61%
3,Cc1cc(-c2ccc(C)c(S(=O)(=O)NC3CCCCC3)c2)on1,inactive: -21.6%
4,CCOc1ccc(-n2ccnc2SCC(=O)Nc2nc3ccc(C)cc3s2)cc1,inactive: -16%
5,CC1(C)C(=O)N(CC(=O)Nc2cccc(F)c2)c2ccc(S(=O)(=O)N3CCCCC3)cc21,inactive: -22.1%
6,Cc1nn(-c2ccccc2)c2c1N(CC(=O)N1CCN(c3ccc(F)cc3)CC1)C(=O)CS2,inactive: 3.41%
7,COc1cccc2cc(C(=O)Nc3ccc(F)c(F)c3)c(=O)oc12,inactive: 4.22%
8,O=C(Cn1c(=O)n(Cc2cccs2)c(=O)c2cccnc21)Nc1ccc(F)cc1,inactive: -37.7%
9,CCCCNC(=O)C(Cc1ccccc1)NS(=O)(=O)c1ccc2c(c1)c(=O)n(C)c(=O)n2C (configuration not stated),inactive: -5.72%
10,CCn1c(=N)c(C(=O)NCc2ccccc2)cc2c(=O)n3cc(C)ccc3nc21,inactive: -3.98%
11,Cc1oc(-c2ccc(C(=O)NCc3ccc(Cl)cc3)cc2)nc1CS(=O)(=O)c1ccccc1,inactive: -33.1%
12,CC(C)c1ccc(N2C(=O)CS(=O)(=O)C23C(=O)N(Cc2cccc(F)c2)c2ccccc23)cc1 (configuration not stated),inactive: -27.5%
13,CCOc1ccc(-c2ncnn2-c2sc3c(c2C#N)CCCCC3)cc1,inactive: 14.9%
14,Cc1cc2c(C(C)C)c(O)c(O)c(C=O)c2c(O)c1-c1c(C)cc2c(C(C)C)c(O)c(O)c(C=O)c2c1O,inactive
15,Cc1ccc(C)c(NC(=O)c2cc(S(=O)(=O)N3CCCc4ccccc43)ccc2F)c1,inactive: -14%
16,Cc1cc(C)c(OCC(=O)N(Cc2ccco2)Cc2ccco2)c(C)c1,inactive: -22.2%
17,COc1ccc(Cn2ccc3nc(C)c(C(=O)Nc4cc(C)cc(C)c4)cc3c2=O)cc1,inactive: -16.4%
18,Cc1nc2ccccc2c(=O)n1-c1ccc(NC(=O)c2cccc([N+](=O)[O-])c2)cc1,inactive: -17.2%
19,CSc1ncc(C(=O)Nc2c(C)cccc2C)c(-c2ccccc2)n1,inactive: -12.3%
20,COc1ccccc1CCNC(=O)c1ccc(-c2nc(CSc3ccc(C)cc3)c(C)o2)cc1,inactive: -24.1%
21,CCCCOc1cccc(C(=O)Nc2cccc(-c3nc4ncccc4o3)c2C)c1,inactive: -32.8%
22,CCOC(=O)C1=C(C)NC(=O)NC1c1cn(-c2ccccc2)nc1-c1ccc(OCC)cc1 (configuration not stated),inactive: -22.3%
23,C=C1c2cccc(O)c2C(O)=C2C(=O)[C@@]3(O)C(O)=C(C(N)=O)C(=O)[C@@H](N(C)C)[C@@H]3[C@@H](O)[C@H]12,inactive: -54.1%
